Source: PubChem BioAssay AID686979 (National Center for Advancing Translational Sciences (NCATS), 2013)
“And” between values parts separate entries of the source, which are not always exact repeats. Equal values may be shown once. Out of some 420,000 compounds screened, about 50,000 (12%) were called active. The shares of active, inactive and inconclusive entries below differ from those in the screen. Calls follow the shape of the dose curve; as a rule, active = well fitted inhibition curve with a large enough effect; inconclusive = small, poorly fitted or top-dose-only effect; inactive = flat fitted curve, though single readings scatter. Potencies of inconclusive entries are left out as doubtful fits.
% is scaled to controls: 0 for no effect and ±100 for the full control effect; potency is read from the fitted curve at half-maximal effect; tags tell the direction and shape of the fitted curve.

Assay: qHTS for Inhibitors of human tyrosyl-DNA phosphodiesterase 1 (TDP1): qHTS in cells in presence of CPT; also: nearly all actives have a fitted effect of over 55% in size
Details: chicken DT40 Tdp1-/-;hTDP1 cells + 20 nM CPT, ATP luminescence, 48 h; activity change, negative = growth inhibition: at 46.2 µM (top of the series) unless noted
In short: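 Chicken DT40 Tdp1-/- cells stably complemented with human TDP1 were seeded at 400 cells/well in medium containing 20 nM camptothecin, exposed to pin-transferred compounds, and grown at 37 °C for at least 48 hr. Viability was read as ATP luminescence.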
In the case of `CCCCC(CC)CN1CN(CC(CC)CCCC)CC(C)(N)C1` (configuration not stated), the Potency is reported as active: 9.03 µM and active: 16.4 µM and active: 164 nM. For `O=c1[nH]c2cc3c(cc2cc1CN(CCc1ccccc1)Cc1nnnn1CC1CCCO1)OCO3` (configuration not stated), the Potency was inconclusive [inhibitor, single point]. With `CCCCN(CCCC)c1ccc(/C=C/c2ccnc3ccccc23)cc1` the Potency was inconclusive [inhibitor, single point]. For `Cc1cccc2c1-c1sc(C(=O)Nc3cccnc3)cc1CO2`, the Potency was inconclusive [inhibitor, single point]. With `COC(=O)c1sc(NC(=O)OCc2ccccc2)nc1CCNC(=O)OC(C)(C)C` the Potency was inconclusive [inhibitor, single point]. With `COC(=O)[C@]12CCCCC=C1N(Cc1ccc(Cl)cc1Cl)C(=O)[C@H](CC(=O)N1CCCCC1)C2` the Potency was inconclusive [inhibitor, single point]. With `COC(=O)c1ccc(N2C(c3cc(OC)cc(OC)c3)=Cc3ccc(-c4ccc(C(N)=O)cc4)cc3C2CC(=O)C2CC2)cc1` (configuration not stated) the Potency was inconclusive [inhibitor, partial curve]. With `Cc1cccc(C)c1-n1nnnc1C1c2ccccc2C(=O)N1CCCN1CCOCC1` (configuration not stated) the “activity change, negative = growth inhibition” value was inactive: -1.24%. In the case of `COc1ccc(-c2nc3c(s2)CCc2onc(-c4ccc(Br)cc4)c2-3)cc1`, the Potency is reported as inconclusive [inhibitor, single point]. In the case of `COc1ccc(S(=O)(=O)N(CCc2ccccc2)CC(=O)NCc2ccccc2)cc1OC`, the Potency is reported as active: 16.4 µM. In the case of `COCCN1C(=O)c2[nH]nc(-c3c(C)cc(C)cc3O)c2C1c1cccc(O)c1` (configuration not stated), the Potency is reported as inconclusive [inhibitor, single point]. For `O=C1CCc2cc(S(=O)(=O)N3CCCCC3)cc3c2N1CC3`, the “activity change, negative = growth inhibition” value was inactive: -5.62%. In the case of `CCOc1ccc(NC(=O)C2CCCN(c3nnc(-n4c(C)ccc4C)s3)C2)cc1` (configuration not stated), the Potency is reported as inconclusive [inhibitor, single point]. With `COCCn1cnnc1SCC(=O)Nc1cccc(S(=O)(=O)N(C)c2ccccc2)c1` the “activity change, negative = growth inhibition” value was inactive: 6.29%. In the case of `Cc1ccc(Cc2c(-c3ccc(Cl)cc3)nc3c(Cl)cc(C(F)(F)F)cn23)cc1`, the Potency is reported as inconclusive [inhibitor, single point]. With `CCOc1ccccc1NC(=O)c1ccc2nccnc2c1` the Potency was inconclusive [inhibitor, single point]. With `Cc1ccc(NC(=O)CCC(=O)OCC(=O)c2ccc(Oc3ccc([N+](=O)[O-])cc3)cc2)c(C)c1` the Potency was inconclusive [inhibitor, single point]. In the case of `COc1ccc(C(=O)NC(=S)N(Cc2ccccc2)Cc2ccccc2)cc1`, the Potency is reported as active: 16.4 µM. For `COc1ccc(F)cc1S(=O)(=O)N1CCC2(CC1)OCCN2S(=O)(=O)c1cccs1`, the Potency was inconclusive [inhibitor, single point]. In the case of `CCCNS(=O)(=O)c1cc(-c2nnc3c4ccccc4c(C)nn23)ccc1OC`, the “activity change, negative = growth inhibition” value is reported as inactive: -9.49%. With `CCCOc1ccccc1OCC(=O)Nc1cccc(S(=O)(=O)NC2=NCCC2)c1` the Potency was inconclusive [inhibitor, single point]. With `CC(C)(C)c1ccc(-n2ncc3c2CCCC3NC(=O)C2=NNC(=O)CC2)cc1` (configuration not stated) the Potency was inconclusive [inhibitor, single point]. In the case of `Cc1nc2ccc(C(=O)N3CCN(c4ccccc4)CC3)cc2s1`, the “activity change, negative = growth inhibition” value is reported as inactive: -6.74%. For `CCc1ccccc1N1C(=O)N(Cc2cccc(Cl)c2)c2ccccc2S1(=O)=O`, the Potency was inconclusive [inhibitor, single point]. In the case of `CC(C)c1ccc(NC(=O)C2(C)Cc3c(-c4ccccc4)ccnc3O2)cc1` (configuration not stated), the Potency is reported as active: 18.4 µM. In the case of `COC(=O)C1=C(C)N(c2ccc(OC)cc2)C(C)=C(C(=O)OC)C1c1ccc(OC)cc1`, the Potency is reported as active: 8.2 µM. For `Cc1csc(=Nc2ccccc2)n1Cc1ccco1`, the “activity change, negative = growth inhibition” value was inactive: -6.72%. For `Cn1c(Cl)nc2c1c(=O)n(Cc1cccc(Br)c1)c(=O)n2C`, the Potency was inconclusive [inhibitor, partial curve]. In the case of `Cc1ccc(Nc2ccc([N+](=O)[O-])cn2)cc1Cl`, the Potency is reported as inconclusive [inhibitor, single point]. For `Nc1nnc(CCCCCc2nnc(N)s2)s1`, the “activity change, negative = growth inhibition” value was inactive: 7.12%. For `O=C(CSc1ccc(-c2ccccc2)nn1)N1CCCCC1`, the “activity change, negative = growth inhibition” value was inactive: 7.72%. In the case of `COc1cccc(N(CC(=O)NCCSCc2ccco2)S(=O)(=O)c2ccccc2)c1`, the “activity change, negative = growth inhibition” value is reported as inactive: -25.4%. In the case of `O=C(c1ccco1)N(CCC(c1ccccc1)c1ccco1)Cc1ccco1` (configuration not stated), the Potency is reported as inconclusive [inhibitor, single point]. In the case of `c1ccc(Cc2ccc(OCCn3ccnc3)cc2)cc1`, the Potency is reported as active: 20.6 µM. For `O=C(Nc1ccnn1C1CCN(C(=O)c2ccc(Cl)cc2)CC1)C1CC1`, the “activity change, negative = growth inhibition” value was inactive: -8.95%. For `CCOc1ccc(/C(O)=C2/C(=O)C(=O)N(c3ncccn3)C2c2ccccc2)cc1` (configuration not stated), the Potency was inconclusive [inhibitor, single point]. In the case of `O=C(Nc1sc2c(c1C(=O)O)CCC2)c1ccccc1`, the Potency is reported as inconclusive [inhibitor, single point]. For `Cc1ccccc1C(=O)NC(=S)N(CCO)Cc1ccccc1`, the “activity change, negative = growth inhibition” value was inactive: 2.9%. For `CC(C)Nc1nnc(SCC(=O)c2c(N)n(Cc3ccccc3)c(=O)n(C)c2=O)s1`, the Potency was inconclusive [inhibitor, single point]. In the case of `Cc1ccc(C)c(OCCC(=O)OCC(=O)Nc2ccc(Cl)cn2)c1`, the “activity change, negative = growth inhibition” value is reported as inactive: -4.75%. With `NC(N)=NCc1cccc(I)c1` the Potency was active: 10.6 µM and active: 18.8 µM and active: 6.51 µM. In the case of `OC(c1ccc(F)c(F)c1)c1nc(-c2ccncc2)cs1` (configuration not stated), the Potency is reported as active: 8.2 µM. For `CCn1c(SCC(=O)Nc2cc(C)on2)nc2c1c(=O)n(C)c(=O)n2C`, the Potency was inconclusive [inhibitor, single point]. With `CC1CN(S(=O)(=O)c2cc(C(=O)NC(C)c3cccnc3)ccc2Cl)CC(C)O1` (configuration not stated) the Potency was inconclusive [inhibitor, single point]. With `CCCCCc1ccc(CC(=O)Nn2c(C)nc3ccccc3c2=O)cc1` the Potency was inconclusive [inhibitor, partial curve]. With `C=CCN=C1NN=C(c2ccc3c(c2)OCCO3)CS1` the “activity change, negative = growth inhibition” value was inactive: -28.8%. With `COc1cccc(C(=O)N2CCN(Cc3cn[nH]c3-c3ccc(F)cc3F)CC2)c1` the Potency was inconclusive [inhibitor, partial curve, poor fit]. In the case of `Cc1nn(Cc2ccccc2)c(Cl)c1C(=O)OC1CCOC1=O` (configuration not stated), the Potency is reported as inconclusive [inhibitor, single point]. For `CC1(Cc2cc(Cl)ccc2C(F)(F)F)C(=O)Nc2ccc(OC(F)(F)F)cc21` (configuration not stated), the Potency was active: 23.1 µM. In the case of `O=C(C1CCN(C2CC(=O)N(c3ccc(Cl)cc3)C2=O)CC1)N1CCOCC1` (configuration not stated), the Potency is reported as inconclusive [inhibitor, single point]. With `COc1ccc(C(=O)NC(=S)Nc2nc(C)cc(C)n2)cc1Br` the “activity change, negative = growth inhibition” value was inactive: -12.5%. With `CCc1nnc2c3ccccc3nc(N3CCN(c4cc(C)ccc4C)CC3)n12` the Potency was inconclusive [inhibitor, full curve]. With `CC(NC(=O)c1ccccc1F)c1cccc2ccccc12` (configuration not stated) the Potency was inconclusive [inhibitor, single point]. For `CN(C)C(CNC(=O)c1ccc2ccccc2c1)c1ccco1` (configuration not stated), the Potency was inconclusive [inhibitor, single point]. For `C=CCc1cc(/C=C2/NC(=O)N(CC)C2=O)cc(OCC)c1OCc1ccc(C(=O)O)cc1`, the Potency was inconclusive [inhibitor, single point]. In the case of `COc1ccc(-c2cc(C3CCN(C(=O)OC(C)(C)C)CC3)[nH]n2)cc1`, the Potency is reported as inconclusive [inhibitor, partial curve, poor fit]. For `COc1cccc(Nc2ncc3nc(CCc4ccccc4)c(=O)n(Cc4cccs4)c3n2)c1`, the “activity change, negative = growth inhibition” value was inactive: -5.06%. With `C/C=C/c1ccc(OCC(O)CN(C)Cc2ccc(SC)cc2)c(OC)c1` (configuration not stated) the Potency was inconclusive [inhibitor, single point]. With `CCc1cccc(C)c1NS(=O)(=O)c1cc(Br)cnc1N` the “activity change, negative = growth inhibition” value was inactive: 10.5%. For `CCOc1cc(C2NN=C(c3ccccc3)S2)ccc1OCc1ccc(F)cc1` (configuration not stated), the Potency was inconclusive [inhibitor, partial curve]. With `CCC1=NN(C(=O)c2ccccc2[N+](=O)[O-])C(O)(c2ccccc2)C1` (configuration not stated) the “activity change, negative = growth inhibition” value was inactive: -11.7%. With `CC1(C)Cc2ccccc2C(/C(C#N)=N/O)=N1` the Potency was active: 14.6 µM. With `Cc1ccc(NS(=O)(=O)c2c(C)nc3sc(C)cn3c2=O)c(C)c1` the Potency was active: 18.4 µM. For `Cc1cc(N2CCCC(C(=O)Nc3cccc(Cl)c3)C2)n2ncnc2n1` (configuration not stated), the Potency was inconclusive [inhibitor, single point]. For `CC1(C(=O)Nc2ccc3c(c2)OCO3)CCN1C(=O)CCc1cccs1` (configuration not stated), the “activity change, negative = growth inhibition” value was inactive: -17.1%. For `COc1ccc(CCNC(=O)C2c3ccccc3C(=O)N2CCC(C)C)cc1OC` (configuration not stated), the “activity change, negative = growth inhibition” value was inactive: -20.7%. For `CCCCCCCCCCCC(=O)N1CC(=O)NC(=O)C1`, the “activity change, negative = growth inhibition” value was inactive: 1.61%. For `COc1ccc(C(C(=O)NC(C)(C)C)N(C(=O)CCC(=O)Nc2cc(C)on2)c2cccc(F)c2)cc1` (configuration not stated), the “activity change, negative = growth inhibition” value was inactive: 0.108%. For `O=C(CN1CCC(C(O)(c2ccccc2)c2ccccc2)CC1)Nc1ccccc1`, the Potency was active: 20.6 µM. With `COc1cccc(SCC2CSc3nc4ccccc4c(=O)n32)c1` (configuration not stated) the Potency was inconclusive [inhibitor, single point]. With `COC(OC)C1(C)C(C#N)=C(N)Oc2c1c(=O)oc1ccccc21` (configuration not stated) the Potency was inconclusive [inhibitor, single point]. In the case of `CCCC(=O)NC(=S)Nc1ccc(NC(=O)C(C)C)c(OC)c1`, the “activity change, negative = growth inhibition” value is reported as inactive: 0.793%.
